The test system of this assay is L1210 leukemia ip in BDF1 mice, survival T/C. Description: NCI In Vivo Anticancer Drug Screen. Data for tumor model L1210 Leukemia (intraperitoneal) in B6D2F1 (BDF1) mice. To be noted: vehicle: saline, higher = longer survival.

T/C data for two molecules are collected here from PubChem BioAssay AID248 (DTP/NCI, 2004).

Toxic doses and inconclusive results are not listed. For part of its entries the source gives two or more results. This list holds those alone. There may be further records. The values listed for one entry differ for a reason that is not stated; dose, time, organism, isomer or construct need not be as stated for each record.

Consider `C=CCNC(=O)NCC=C`, for which the T/C (endpoint: median survival time, dose: 100.0 mg/kg/injection, schedule: Q01DX009 (ip)) is given as 100 % of control, 122 % of control, 155 % of control.

With `CC(=O)NC1=C(N2CC2C)C(=O)C(NC(C)=O)=C(N2CC2C)C1=O` (configuration not stated), the T/C (endpoint: mean survival time, dose: 5.0 mg/kg/injection, schedule: Q01DX Z (ip)) is 110 % of control and 182 % of control.
